The campaign covered roughly 39,000 compounds. About 220 (0.56%) showed activity. The list shows a part of the results.
system: Escherichia coli K-12 BW25113; test: relative growth (OD600 normalised to plate interquartile mean) (fraction); higher = less growth inhibition, active = 0.2 or less; details: 50 µM; LB; incubation time: overnight (16-24 h)
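Further: static incubation at 37 °C against the wild-type strain, values averaged over two biological replicates.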

Row | SMILES | relative growth
1 | COc1ccc(NC(=O)N(C)C[C@H]2Oc3ccc(NC(=O)Nc4cccc5ccccc45)cc3CC(=O)N([C@H](C)CO)C[C@H]2C)cc1 | inactive: 0.976
2 | CNC(=O)CC1CCNCC1 | inactive: 1.01
3 | C[C@@H]1CN([C@H](C)CO)C(=O)c2cc(NS(=O)(=O)c3ccc(Cl)cc3)ccc2O[C@H]1CN(C)Cc1ccc(C(=O)Nc2ccccc2N)cc1 | inactive: 1
4 | C[C@@H]1CN([C@@H](C)CO)S(=O)(=O)c2ccc(C#Cc3ccncc3)cc2O[C@H]1CN(C)S(=O)(=O)c1ccccc1 | inactive: 1.02
5 | CCC1(O)C(=O)OCc2c1cc1n(c2=O)Cc2cc3cc(O)ccc3nc2-1 (stereo not given) | inactive: 1
6 | CC(=O)N1[C@H](CO)[C@H](c2ccccc2)[C@@H]1CNC(=O)CN1CCOCC1 | inactive: 0.988
7 | CC(=O)C12OC1(C)CC1C3CC=C4CC(O)CCC4(C)C3CCC12C (stereo not drawn) [16beta-METHYL-16(17)-EPOXY-5-PREGNENOLONE] | inactive: 0.955
8 | C[C@H](CO)N1C[C@H](C)[C@H](CN(C)Cc2ccc(C(=O)O)cc2)OCCCC[C@H](C)Oc2ccc(NC(=O)C3CCCCC3)cc2C1=O | inactive: 1.01
9 | O=C(N[C@@H](c1ccccc1)c1ccc2ccccc2n1)C1CCN(Cc2ccc(Oc3ccccc3)cc2)CC1 | inactive: 1.02
10 | CC(C)[C@@H](N)c1nc2ccccc2[nH]1 | inactive: 1
11 | CC(C)NC(=O)N(C)C[C@H]1Oc2ccc(NC(=O)CCN3CCOCC3)cc2C(=O)N([C@@H](C)CO)C[C@@H]1C | inactive: 1.01
12 | C[C@H]1CN([C@@H](C)CO)C(=O)Cc2cc(NC(=O)Cc3cn(C)c4ccccc34)ccc2O[C@H]1CN(C)C(=O)Nc1cccc2ccccc12 | inactive: 1.01
13 | CN(C)Cc1cn(CC[C@H]2CC[C@@H](NS(=O)(=O)c3ccccc3)[C@H](CO)O2)nn1 | inactive: 0.988
14 | COc1ccc(NC(=O)N(C)C[C@H]2Oc3c(NS(=O)(=O)c4cn(C)cn4)cccc3C(=O)N([C@@H](C)CO)C[C@H]2C)cc1 | inactive: 1.01
15 | COc1ccc(NC(=O)N(C)C[C@H]2OCCCC[C@H](C)Oc3ccc(NS(=O)(=O)c4c(C)noc4C)cc3C(=O)N([C@H](C)CO)C[C@@H]2C)cc1 | inactive: 1
16 | O=C(C[C@H]1CC[C@@H]2[C@H](COC[C@H](O)CN2C(=O)c2ccccn2)O1)NC1CCC1 | inactive: 1.02
17 | [N-]=[N+]=NCc1ccccc1C[C@]1(C(=O)NC[C@@H](O)CO)N=C(c2ccc(OCCCO)cc2)O[C@H]1c1ccccc1 | inactive: 1.01
18 | CC(=O)N[C@H]1C(=O)SC1(C)C | inactive: 0.996
19 | C[C@@H]1CN([C@@H](C)CO)C(=O)c2cccc(NC(=O)Nc3ccc(C(F)(F)F)cc3)c2O[C@H]1CN(C)S(=O)(=O)c1ccc(Cl)cc1 | inactive: 0.793
20 | C[C@H](CO)N1C[C@H](C)[C@@H](CN(C)Cc2ccc3c(c2)OCO3)OCCCC[C@H](C)Oc2ccc(NS(=O)(=O)c3ccc(Cl)cc3)cc2C1=O | inactive: 1.01

Row | SMILES | relative growth
21 | CC(C)(Sc1cc(C(C)(C)C)c(O)c(C(C)(C)C)c1)Sc1cc(C(C)(C)C)c(O)c(C(C)(C)C)c1 | inactive: 1.08
22 | C[C@H]1[C@H]([Si](C)(C)F)[C@@H](CCO)O[C@]12C(=O)N(Cc1ccccc1)c1ccc(N3C(=O)c4ccccc4Oc4ccccc43)cc12 | inactive: 1.01
23 | C[C@H](CO)N1C[C@H](C)[C@@H](CN(C)C(=O)Cc2ccccc2)OCCCC[C@H](C)Oc2ccc(NC(=O)C3CCCCC3)cc2C1=O | inactive: 1.03
24 | O=C(C[C@@H]1CC[C@@H]2[C@H](COC[C@H](O)CN2S(=O)(=O)c2cccc(Cl)c2)O1)NC1Cc2ccccc2C1 | inactive: 0.985
25 | C[C@@H]1CN([C@H](C)CO)C(=O)c2cc(C#C[C@@H](C)O)cnc2O[C@@H]1CN(C)Cc1cncnc1 | inactive: 0.997
26 | C[C@H](CO)N1C[C@H](C)[C@@H](CN(C)Cc2ccc(C(=O)O)cc2)Oc2ccc(NC(=O)c3ccncc3)cc2CC1=O | inactive: 1.03
27 | N=C(N=C(N)N)Nc1ccccc1 | inactive: 0.972
28 | Cc1ccc(-c2ccc(N)cc2)cc1 | inactive: 0.953
29 | CC(C)(C)NCC(O)COc1nsnc1N1CCOCC1.O=C(O)C=CC(=O)O (stereo not given) | inactive: 0.974
30 | C[C@@H]1CN([C@H](C)CO)C(=O)c2cc(C#Cc3ccccc3F)cnc2O[C@@H]1CN(C)C(=O)c1ccc2c(c1)OCO2 | inactive: 1
31 | CC(C)CC#Cc1ccc2c(c1)O[C@@H](CN(C)C(=O)c1cccnc1)[C@@H](C)CN([C@@H](C)CO)S2(=O)=O | inactive: 0.981
32 | COCC#Cc1ccc2c(c1)O[C@@H](CN(C)C(=O)COC)[C@@H](C)CN([C@@H](C)CO)S2(=O)=O | inactive: 0.998
33 | COc1ccc(-c2cc(=O)c3c(O)cc(OC4OC(COC5OC(C)C(O)C(O)C5O)C(O)C(O)C4O)cc3o2)cc1O (stereo not given) | inactive: 1.11
34 | CO[C@@H]1CN(C)C(=O)c2ccc(NC(=O)C3CCC3)cc2OC[C@@H](C)N(C(=O)Nc2ccc(C(F)(F)F)cc2)C[C@H]1C | inactive: 0.963
35 | C=CCOC(=O)[C@H]1[C@@H]2C(=O)O[C@@H](c3ccccc3)[C@@H](c3ccccc3)N2[C@@H](c2ccc(OCCOC(=O)[C@H]3C[C@H]4C(=O)N[C@@H](Cc5ccccc5)C(=O)N4[C@H]3c3ccc(O)cc3)cc2)[C@]12C(=O)Nc1ccc(I)cc12 | inactive: 1.08
36 | C[C@@H]1CCCCO[C@H](CN(C)S(=O)(=O)c2ccccc2)[C@@H](C)CN([C@@H](C)CO)C(=O)c2cc(NS(=O)(=O)c3cn(C)cn3)ccc2O1 | inactive: 1.02
37 | C[C@H](CO)N1C[C@H](C)[C@@H](CN(C)S(=O)(=O)c2cn(C)cn2)Oc2ccc(NS(=O)(=O)c3ccc(Cl)cc3)cc2C1=O | inactive: 0.98
38 | C[C@H](CO)N1C[C@H](C)[C@H](CN(C)Cc2ccc(C(=O)O)cc2)OCCCC[C@H](C)Oc2ccc(NC(=O)Nc3ccc(F)cc3)cc2C1=O | inactive: 0.972
39 | COCC(=O)N(C)C[C@H]1Oc2cc(-c3ccc(OC)cc3)ccc2S(=O)(=O)N([C@H](C)CO)C[C@@H]1C | inactive: 0.986
40 | Cc1nc(=O)c(/C=N/O)c(O)[nH]1 | inactive: 1

Row | SMILES | relative growth
41 | C[C@H]1CN([C@@H](C)CO)C(=O)c2cccc(NC(=O)Nc3ccc(F)cc3)c2O[C@@H]1CN(C)Cc1ccc(Cl)c(Cl)c1 | inactive: 0.954
42 | O=C(Nc1ccc2c(c1)[C@H]1C[C@H](CC(=O)N3CCc4ccccc4C3)O[C@@H](CO)[C@H]1O2)C1CCOCC1 | inactive: 0.998
43 | O=C1O[C@H](c2ccccc2)[C@H](c2ccccc2)N2[C@H]1[C@@H](C(=O)N1CCCCCCC1)[C@]1(C(=O)Nc3ccc(C#CC4(O)CCCCCC4)cc31)[C@H]2c1ccc(O)cc1 | inactive: 1.01
44 | O=C(CCCCCNC(=O)OCc1ccc(CO[C@H]2C[C@@H](c3ccc(Br)cc3)C=C(C(=O)N3CCN(Cc4ccc5c(c4)OCO5)CC3)O2)cc1)NO | inactive: 0.981
45 | CO[C@@H](CN(C)S(=O)(=O)c1ccc(F)cc1)[C@H](C)CN([C@H](C)CO)S(=O)(=O)c1cccc(Cl)c1 | inactive: 1.02
46 | C[C@H]1CN([C@@H](C)CO)S(=O)(=O)c2ccc(C3=CCCC3)cc2O[C@H]1CN(C)S(=O)(=O)c1ccc(F)cc1 | inactive: 1.04
47 | Cc1ccc(S(=O)(=O)N[C@@H]2CC[C@H](CCNC(=O)CN3CCOCC3)O[C@@H]2CO)cc1 | inactive: 0.949
48 | C[C@@H]1CN([C@H](C)CO)C(=O)CCCn2cc(nn2)CO[C@@H]1CN(C)C(=O)Nc1ccc(N2CCCCC2)cc1 | inactive: 1
49 | COc1ccc(S(=O)(=O)Nc2ccc3c(c2)C(=O)N([C@H](C)CO)C[C@H](C)[C@@H](CN(C)S(C)(=O)=O)O3)cc1 | inactive: 1.01
50 | C[C@@H]1CN([C@@H](C)CO)C(=O)c2cc(N(C)C)ccc2O[C@@H](C)CCCCO[C@@H]1CN(C)CC1CCCCC1 | inactive: 0.99
51 | C[C@H](CO)N1C[C@H](C)[C@@H](CN(C)C(=O)Nc2ccccc2C(F)(F)F)OCc2ccccc2-c2c(n(C)c3ccccc23)C1=O | inactive: 0.978
52 | C[C@@H]1CN([C@@H](C)CO)C(=O)c2cc(NS(=O)(=O)c3ccccc3)ccc2O[C@@H]1CN(C)Cc1ccc(Oc2ccccc2)cc1 | inactive: 0.967
53 | c1ccc2c(CSc3nc4ccccc4o3)cccc2c1 | inactive: 0.976
54 | CC(C)(ON=C(C(=O)NC1C(=O)N2C(C(=O)[O-])=C(C[n+]3ccccc3)CSC12)c1csc(N)n1)C(=O)O (stereo not given) | active: 0.0511
55 | C[C@@H]1CN([C@@H](C)CO)C(=O)c2cc(NC(=O)Nc3ccc(F)cc3)ccc2O[C@@H](C)CCCCO[C@H]1CN(C)Cc1ccccc1 | inactive: 0.998
56 | C[C@@H]1CCCCO[C@H](CN(C)C(=O)C2CCCCC2)[C@H](C)CN([C@@H](C)CO)C(=O)c2cc(NC(=O)CCC(F)(F)F)ccc2O1 | inactive: 0.996
57 | COc1ccc(S(=O)(=O)Nc2ccc3c(c2)C(=O)N([C@H](C)CO)C[C@@H](C)[C@H](CN(C)CC2CC2)O3)cc1 | inactive: 1.01
58 | C[C@@H]1CN([C@@H](C)CO)C(=O)c2cccc(NS(=O)(=O)c3ccccc3)c2O[C@@H]1CN(C)Cc1ccncc1 | inactive: 0.998
59 | COCC(=O)Nc1ccc2c(c1)C(=O)N(C)[C@@H]1CC[C@@H](CC(=O)NC3Cc4ccccc4C3)O[C@H]1CO2 | inactive: 1.05
60 | Cc1ccc(S(=O)(=O)Nc2ccc3c(c2)C(=O)N([C@H](C)CO)C[C@@H](C)[C@@H](CN(C)S(=O)(=O)c2cccs2)O3)cc1 | inactive: 0.951
